Test results published in PubChem BioAssay AID1347120 (National Center for Advancing Translational Sciences (NCATS), 2019).
Out of some 390,000 compounds screened, about 930 (0.24%) were called active. The inconclusive results got no clear call from the source; some entries with a clear call stand among them for comparison. The call rests on the fitted dose curve; in most records, active means well fitted activation curve with a large enough effect; inconclusive means small, poorly fitted or top-dose-only effect; inactive means no such curve, though single readings can be large or run the other way. Potencies beside an inconclusive call are fits to weak or partial responses and may not hold up.

Experiment: qHTS for Suppressors of FUS Proteinopathy: Primary screen using FUS-linked yeast assay; further: nearly all actives have a fitted effect of over 55% in size;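 on growth rescue (activation): plate controls were DMSO vehicle for no effect and reference control for full effect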
Details: S. cerevisiae FUS-expressing, OD600, 24 h; Potency: growth rescue; growth rescue (activation): at 76.6 µM (top of the series)
Summary of the method: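 Galactose (2%) drives FUS expression in yeast precultured in raffinose; seeding density OD 0.005. Test compounds incubated 24hr at 30C and 99% humidity before absorbance at 600 nm was measured.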
Potency means the concentration at half of the fitted maximal effect; tags describe the fitted curve by direction and shape.

Compound | Potency | growth rescue (activation)
CO[C@H]1CC[C@@]2(C)[C@@H](CC[C@@H]3[C@@H]2CC[C@@]2(C)[C@H]3C[C@H](C(=O)N[C@@H](CCCN=C(N)N)C(=O)NCC(=O)N[C@@H](CC(=O)O)C(N)=O)O[C@]23CCCO3)C1 | inactive | –
CC(=O)NC(Cc1ccc2c(c1)OCO2)C(=O)N1CCCC1 (stereo not drawn) | inactive | –
COc1ccc(C(=O)CC(=O)C(=O)Nc2cccc([N+](=O)[O-])c2C)cc1 | inconclusive: 17.8 µM [activator, partial curve] | –
CCOc1ccc(OCC)c(S(=O)(=O)NCc2cccnc2)c1 | inconclusive: 11.2 µM [activator, single point] | –
CC(=O)N1CCN(c2ccccc2NC(=S)NC(=O)c2cc3ccccc3o2)CC1 | inconclusive: 10 µM [activator, partial curve] | –
C[C@H](CO)N1C[C@H](C)[C@@H](CN(C)S(=O)(=O)c2ccc(F)cc2)Oc2c(NS(=O)(=O)c3ccccc3)cccc2C1=O | inconclusive: 31.6 µM [activator, single point] | –
Cc1ccc(C)c(N2CCN(C(=O)C3CCN(C(=O)c4cc5sccc5n4C)CC3)CC2)c1 | inconclusive: 14.1 µM [activator, single point] | –
Cc1cccc(-c2cnc(C(O)c3ccc(-c4ccccc4)cc3)[nH]2)c1 (stereo not drawn) | inactive | –
CN(C(=O)c1ccc(NC(=O)Cc2ccc(NC(=O)C3CCN(C(=O)C4CCCC4)CC3)cc2)cc1)C1CC1 | inconclusive: 25.1 µM [activator, partial curve] | –
COc1ccc(C2C(C#N)C(C#N)N3CCCN23)cc1 (stereo not drawn) | – | inconclusive: 74% [activator]
Cc1ccccc1CN1C(=O)c2ccccc2S(=O)c2ccc(C(=O)NCc3ccco3)cc21 (stereo not drawn) | inconclusive: 28.2 µM [activator, partial curve, poor fit] | –
O=S(=O)(c1ccc(Br)cc1)c1nc(-c2cccs2)oc1SCc1ccc(F)cc1 | inactive | –
CCN1c2ccccc2NC2C1C(C(C)=O)C(=O)N2c1ccc(Cl)cc1 (stereo not drawn) | inconclusive: 15.8 µM [activator, partial curve, poor fit] | –
Cc1oc(-c2ccccc2F)nc1CS(=O)(=O)CC(=O)N1CCN(c2ccc(Cl)cc2)CC1 | inconclusive: 31.6 µM [activator, partial curve, poor fit] | –
O=C(Nc1cc(-c2nc3ncccc3o2)ccc1Cl)c1cccs1 | inactive | –
O=C(c1ccc2c(c1)N(Cc1ccc(Cl)cc1)C(=O)c1ccccc1S2(=O)=O)N1CCC(Cc2ccccc2)CC1 | inconclusive: 3.55 µM [activator, full curve] | –
N#Cc1c(-c2ccc(Br)cc2)nc2n(c1=O)CCCS2 | inactive | –
O=C(c1ccc2c(c1)N(Cc1ccc(F)cc1)C(=O)c1ccccc1S2(=O)=O)N1CCCCCC1 | inconclusive: 39.8 µM [activator, partial curve, poor fit] | –
CCN1CCN(CCNC(=O)c2ccc(/C=C3/Sc4ccccc4N(Cc4cccc(Cl)c4)C3=O)cc2)CC1 | inconclusive: 39.8 µM [activator, single point] | –
O=C(c1ccc(COc2c(F)c(F)c(F)c(F)c2F)o1)N1CCOCC1 | inactive | –
COc1ccc(OCCCC(=O)NCc2ccco2)cc1 | inactive | –

Compound | Potency | growth rescue (activation)
COc1cccc(NC(=O)C2(C)CCCN2C(=O)C(C)C)c1 (stereo not drawn) | inactive | –
CC(=O)Nc1ccc(NS(=O)(=O)Cc2ccccc2)cc1 | inconclusive: 22.4 µM [activator, partial curve, poor fit] | –
CCc1cccc(NC(=O)c2ccc(NS(=O)(=O)c3c(C)noc3C)cc2)c1 | inconclusive: 25.1 µM [activator, single point] | –
COc1ccccc1CNC(=O)c1oc2c(c1C)-c1nn(Cc3ccc(Cl)cc3)cc1CC2 | inconclusive: 22.4 µM [activator, single point] | –
COc1ccc(NC(=O)c2cc(C3CC3)nc3c2c(C)nn3-c2ccc(C)cc2)cc1OC | inactive | –
CCOc1ccc(CNC(=O)C(C)n2ccc3cc(S(=O)(=O)N4CCCC4)ccc32)cc1 (stereo not drawn) | inconclusive: 20 µM [activator, partial curve] | –
COc1ccccc1CN(Cc1nc2ccccc2c(=O)[nH]1)C(=O)Nc1cccc(C)c1 | inconclusive: 50.1 µM [activator, single point] | –
Cc1cccc(/C=C2\Sc3ccc(C(=O)N4CCOCC4)cc3N(C)C2=O)c1 | inconclusive: 28.2 µM [activator, single point] | –
Cc1ccc(C)c(CN2C(=O)c3ccccc3S(=O)c3ccc(C(=O)NCCc4ccc(Cl)cc4)cc32)c1 (stereo not drawn) | inconclusive: 15.8 µM [activator, partial curve, poor fit] | –
Cc1cc(C)n2nc3nc(N4CCCC4)nc(-c4ccccc4)c3c2n1 | inconclusive: 31.6 µM [activator, single point] | –
Cc1nnc(NC(=O)COc2ccc3c(C)cc(=O)oc3c2)s1 | inconclusive: 12.6 µM [activator, partial curve, poor fit] | –
Cc1ccc(NC(=O)Nc2nnc(SCC(=O)N3CCC(C)CC3)s2)cc1 | inactive | –
CC(CCC(=O)O)C1CCC2C3CC(O)C4CC(O)CC[C@]4(C)C3CCC12C (stereo partly drawn) | inconclusive: 31.6 µM [activator, single point] | –
CC(=O)Nc1cc(-c2ccc(C(=O)NC3CC3)cc2)cn2c(-c3cccc(C(F)(F)F)c3)cnc12 | inconclusive: 31.6 µM [activator, single point] | –
COc1ccc2ccc(=O)oc2c1CC=C(C)C | inconclusive: 28.2 µM [activator, partial curve, poor fit] | –
CC(C)(C)c1ccc(-c2nnc3n2N=C(c2ccc4ccccc4c2)CS3)cc1 | inactive | –
N#Cc1nc(-c2ccccc2Cl)oc1N1CCOCC1 | – | inconclusive: -49% [activator]
COCCCN1C(=O)c2[nH]nc(-c3cc(C)cc(C)c3O)c2C1c1ccc(O)c(OC)c1 (stereo not drawn) | active: 39.8 µM | –
COC(=O)C1=C(C(=O)OC)[C@@H]2N(C)c3ccccc3[C@@]23C[C@@H](C(=O)OC)N(C(=O)COCc2ccccc2)C3=N1 | inconclusive: 39.8 µM [activator, single point] | –
Cc1nn(CCC(=O)NNC(=O)Nc2ccccc2F)c(C)c1[N+](=O)[O-] | inactive | –
Nc1nnc(SCC(=O)N2CCN(c3cccc(Cl)c3)CC2)n1-c1ccccc1 | inconclusive: 31.6 µM [activator, partial curve, poor fit] | –

Compound | Potency | growth rescue (activation)
CCOC(=O)[C@]12CCC=C1N(Cc1ccco1)C(=O)[C@H](CC(=O)NCc1cccc(C(F)(F)F)c1)C2 | inconclusive: 11.2 µM [activator, partial curve, poor fit] | –
COc1ccc(N2C(=O)CCC(C(=O)N3CCC(C(N)=O)CC3)C2c2ccc(F)cc2)cc1 (stereo not drawn) | inactive | –
CCOc1ccc(-c2cccc(NC(=O)COc3ccc(Cl)cc3)c2)nn1 | inactive | –
COc1ccccc1C(OC(=O)c1cccs1)C(=O)NCc1ccco1 (stereo not drawn) | inconclusive: 39.8 µM [activator, partial curve, poor fit] | –
CCOC(=O)C1CCCN(C(=O)c2ccc3c(=O)n(Cc4ccccc4OC)c(=S)[nH]c3c2)C1 (stereo not drawn) | inconclusive: 7.08 µM [activator, partial curve] | –
COc1ccccc1CNC(=O)CCC1N=C2c3ccccc3N=C(SCC(=O)NCCc3ccc(OC)c(OC)c3)N2C1=O (stereo not drawn) | inactive | –
Cc1ccc(-c2nc(S(=O)(=O)c3ccc(C)cc3)c(SCC(=O)NC3CCCCC3)o2)cc1 | inactive | –
FC(F)(F)c1cc(CCN2CCNC[C@@H]2CC2CCCCC2)cc(C(F)(F)F)c1 | inconclusive: 35.5 µM [activator, partial curve, poor fit] | –
Cc1onc(-c2ccccc2Cl)c1C(=O)NCCn1c(C)cc2ccccc21 | inconclusive: 39.8 µM [activator, single point] | –
CCc1ccc(-c2cc(C)no2)cc1S(=O)(=O)Nc1ccc(Cl)cc1 | inconclusive: 28.2 µM [activator, partial curve, poor fit] | –
CCOC(=O)C1=NN(C(=O)c2ccc(C)cc2)C(O)(c2ccc(Cl)cc2)C1 (stereo not drawn) | inconclusive: 35.5 µM [activator, single point] | –
Cc1ccc2c(CC(=O)OCc3nc(N)nc(Nc4ccccc4C)n3)coc2c1 | inconclusive: 35.5 µM [activator, single point] | –
O=C(Nc1ccc(S(=O)(=O)Nc2cnc3ccccc3n2)cc1)c1ccc(Cl)c([N+](=O)[O-])c1 | inactive | –
COc1cc(/C=C(/C#N)c2ccccc2)ccc1Oc1ccc([N+](=O)[O-])cn1 | inactive | –
CCOC(=O)N(C)c1c(CC)nc2c(OCc3ccccc3C)cccn12 | inactive | –
COc1cc(CN(C(=O)c2oc3ccccc3c2C)C2CCS(=O)(=O)C2)cc(OC)c1OC (stereo not drawn) | inconclusive: 22.4 µM [activator, partial curve, poor fit] | –
CC(=O)Nc1cc(-c2ccc(C(=O)N3CCOCC3)cc2)cn2c(-c3ccc(F)cc3)cnc12 | inconclusive: 39.8 µM [activator, single point] | –
COc1ccccc1-n1c(SCC(=O)Nc2ccc(C)cc2)nc(O)cc1=O | inconclusive: 2 µM [activator, full curve, poor fit] | –
C=CCOc1c(CNc2ccc(C(=O)O)cc2)cccc1OCC | inactive | –
Cc1ccc(N(Cc2cccs2)C(=O)COc2ccccc2[N+](=O)[O-])cc1 | inactive | –
Cc1cc(C)n2c(Br)c(CSc3nc4ccccc4s3)nc2n1 | inconclusive: 20 µM [activator, partial curve, poor fit] | –
